T/C data for 29 molecules are collected here from PubChem BioAssay AID212 (DTP/NCI, 2004).

Results filed as inconclusive are left out. The source holds more than one record for some entries. This list holds those alone. An entry can have further records. Values given together are repeats (runs, samples, wells, individuals or studies).

In this assay the test system is BDF1 mice, colon carcinoma 38 sc, T/C %. The assay is described as follows: NCI In Vivo Anticancer Drug Screen. Data for tumor model Colon Carcinoma 38 (subcutaneous) in B6D2F1 (BDF1) mice. The settings on record: endpoint: median tumor weight (est.), higher = larger tumour. The gist of the method: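 T/C readout: treated group (T) measurement over vehicle control group (C) measurement. Endpoint is survival or tumor size in mice bearing a transplanted tumor.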

Where [1] appears, read: dose: 12.5 mg/kg/injection, schedule: Q07DX002 (ip), vehicle: saline with Tween-80.
[2] abbreviates: dose: 25.0 mg/kg/injection, schedule: Q07DX002 (ip), vehicle: saline with Tween-80.
Where [3] appears, read: dose: 100.0 mg/kg/injection, schedule: Q07DX002 (ip), vehicle: Klucel (hydroxypropylcellulose) (HPC).
Setting [4] is: dose: 200.0 mg/kg/injection, schedule: Q07DX002 (ip), vehicle: Klucel (hydroxypropylcellulose) (HPC).
[5] abbreviates: dose: 50.0 mg/kg/injection, schedule: Q07DX002 (ip), vehicle: saline with Tween-80.
Where [6] appears, read: dose: 100.0 mg/kg/injection, schedule: Q07DX002 (ip), vehicle: saline with Tween-80.
[7] abbreviates: dose: 200.0 mg/kg/injection, schedule: Q07DX002 (ip), vehicle: saline with Tween-80.
Where [8] appears, read: dose: 400.0 mg/kg/injection, schedule: Q07DX002 (ip), vehicle: saline with Tween-80.
[9] abbreviates: dose: 800.0 mg/kg/injection, schedule: Q07DX002 (ip), vehicle: saline with Tween-80.
Where [10] appears, read: dose: 25.0 mg/kg/injection, schedule: Q07DX002 (ip), vehicle: saline.
[11] abbreviates: dose: 50.0 mg/kg/injection, schedule: Q07DX002 (ip), vehicle: saline.
Where [12] appears, read: dose: 100.0 mg/kg/injection, schedule: Q07DX002 (ip), vehicle: saline.
Where [13] appears, read: dose: 50.0 mg/kg/injection, schedule: Q07DX002 (ip), vehicle: Klucel (hydroxypropylcellulose) (HPC).
[14] abbreviates: dose: 12.5 mg/kg/injection, schedule: Q07DX002 (ip), vehicle: Klucel (hydroxypropylcellulose) (HPC).
[15] abbreviates: dose: 400.0 mg/kg/injection, schedule: Q07DX002 (ip), vehicle: Klucel (hydroxypropylcellulose) (HPC).

Consider `O=Cc1ccc([N+](=O)[O-])s1`, for which the T/C under setting [1] was 62 % of control and 109 % of control.
For `COC1=C(OC)C(=O)C(Sc2ccc3ccccc3c2)=CC1=O`, the T/C under setting [2] was 53 % of control and 115 % of control.
Regarding `O=c1[nH]c(=O)n(C2CC(O)C(CO)O2)cc1Br` (stereo not drawn), the T/C is 39 % of control and 181 % of control under setting [3]; 57 % of control and 122 % of control under setting [4]; 90 % of control and 157 % of control (dose: 1600.0 mg/kg/injection, schedule: Q07DX002 (ip), vehicle: Klucel (hydroxypropylcellulose) (HPC)).
`O=C1c2ccccc2C(=O)c2c(NCCNCCO)ccc(O)c21`: the T/C is 47 % of control and 112 % of control (dose: 20.0 mg/kg/injection, schedule: Q07DX002 (ip), vehicle: suspension in saline); 53 % of control, 73 % of control, 95 % of control (dose: 80.0 mg/kg/injection, schedule: Q07DX002 (ip), vehicle: suspension in saline); 41 % of control, 91 % of control, 103 % of control (dose: 160.0 mg/kg/injection, schedule: Q07DX002 (ip), vehicle: suspension in saline).
In the case of `CC1CN1C(=O)NCCCCCCNC(=O)N1CC1C` (stereo not drawn), the T/C is, setting by setting: (dose: 2.5 mg/kg/injection, schedule: Q07DX003 (ip), vehicle: Klucel (hydroxypropylcellulose) (HPC)) 65 % of control and 91 % of control; (dose: 10.0 mg/kg/injection, schedule: Q07DX003 (ip), vehicle: Klucel (hydroxypropylcellulose) (HPC)) 37 % of control and 71 % of control.
Regarding `Cc1ccc(NC(=O)Oc2ccc(Br)cc2Br)c([N+](=O)[O-])c1`, the T/C under setting [1] is 59 % of control and 117 % of control.
Turning to `CCc1nc(N)nc(N)c1-c1ccc(Cl)c([N+](=O)[O-])c1`, the T/C under setting [2] is 73 % of control and 105 % of control.
On to `Nc1ncnc2c1ccn2C1OC(CO)C(O)C1O` (stereo not drawn), for which, under “dose: 4.0 mg/kg/injection, schedule: Q07DX003 (ip), vehicle: Klucel (hydroxypropylcellulose) (HPC)”, the T/C was 48 % of control and 94 % of control.
For the molecule `[Cl][Pt+2][Cl].[NH-]C1CCC1.[NH2-]`, the T/C (dose: 6.0 mg/kg/injection, schedule: Q07DX002 (ip), vehicle: saline) was 52 % of control and 100 % of control.
Regarding `O=C1NC(=O)C2C3C=CC(C12)C1C2C(=O)NC(=O)C2C31` (stereo not drawn), the T/C is, setting by setting: under setting [5], 30 % of control and 89 % of control; under setting [6], 64 % of control, 77 % of control, 101 % of control; under setting [7], 22 % of control, 34 % of control, 67 % of control.
Take `Nc1nc(-c2ccccc2)c(Br)c(=O)[nH]1`: the T/C under setting [8] was 44 % of control and 100 % of control; the T/C under setting [9] was 32 % of control and 84 % of control.
For `CN1CCN(Cc2nc3cccc4c3c([n+]2[O-])-c2ccccc2-4)CC1`, the T/C under setting [2] is recorded as 44 % of control, 100 % of control, 185 % of control; the T/C under setting [5] is 68 % of control, 69 % of control, 150 % of control; the T/C under setting [6] is 39 % of control, 84 % of control, 85 % of control.
As for `CCOC(=O)C(N)CSC(=O)NC` (stereo not drawn), the T/C is 77 % of control and 183 % of control (dose: 12.5 mg/kg/injection, schedule: Q07DX002 (ip), vehicle: saline); 81 % of control and 118 % of control under setting [10]; 67 % of control and 123 % of control under setting [11]; 41 % of control and 171 % of control under setting [12]; 74 % of control and 173 % of control (dose: 200.0 mg/kg/injection, schedule: Q07DX002 (ip), vehicle: saline); 124 % of control and 170 % of control (dose: 400.0 mg/kg/injection, schedule: Q07DX002 (ip), vehicle: saline).
For `C1CC[N-]CC1.[Cl][Pt+2][Cl].[NH-]C1CC1`, the T/C (dose: 12.5 mg/kg/injection, schedule: Q07DX002 (ip), vehicle: water) is 90 % of control and 121 % of control; the T/C (dose: 50.0 mg/kg/injection, schedule: Q07DX002 (ip), vehicle: water) was 70 % of control and 188 % of control.
For `CCCCOCN(COCCCC)C(C)Cc1ccccc1` (stereo not drawn), the T/C by setting is: under setting [6], 28 % of control and 113 % of control; under setting [7], 64 % of control and 104 % of control.
As to `Ic1ncnc2c1ncn2C1CCCO1` (stereo not drawn), the T/C under setting [13] was 52 % of control and 108 % of control.
With `COc1ccc(S(=O)(=O)N/N=C/C(=O)O)cc1`, the T/C is 101 % of control and 164 % of control under setting [1]; 77 % of control and 110 % of control under setting [6].
Turning to `O=C1NC(O)c2ccccc2O1` (stereo not drawn), the T/C reads like this: (dose: 200.0 mg/kg/injection, schedule: Q07DX002 (ip), vehicle: suspension in saline) 50 % of control and 80 % of control; (dose: 400.0 mg/kg/injection, schedule: Q07DX002 (ip), vehicle: suspension in saline) 71 % of control and 123 % of control; (dose: 800.0 mg/kg/injection, schedule: Q07DX002 (ip), vehicle: suspension in saline) 39 % of control and 98 % of control.
For the molecule `CC[C@H](CC[C@@H](C)C1CC[C@H]2[C@@H]3CC=C4C[C@@H](OP(=O)(N5CC5)N5CC5)CC[C@]4(C)[C@H]3CC[C@]12C)C(C)C` (stereo partly drawn), the T/C was 80 % of control and 116 % of control under setting [1]; 107 % of control and 184 % of control under setting [2]; 103 % of control and 159 % of control under setting [6].
Regarding `ClC(Cl)=C(Cl)Cl`, the T/C reads like this: (dose: 200.0 mg/kg/injection, schedule: Q07DX002 (ip), vehicle: other) 90 % of control and 118 % of control; (dose: 225.0 mg/kg/injection, schedule: Q07DX002 (ip), vehicle: saline with Tween-80) 90 % of control and 178 % of control; (dose: 450.0 mg/kg/injection, schedule: Q07DX002 (ip), vehicle: saline with Tween-80) 84 % of control and 115 % of control.
As to `C[CH2][Ge]([CH2]C)[CH2]C.C[CH2][Ge]([CH2]C)[CH2]C.C[CH2][Ge]([CH2]C)[O][Ge]([CH2]C)[CH2]C`, under setting [8], the T/C is 70 % of control and 96 % of control.
With `CC1OC1C(=O)C1(O)C(C)C(O)C23OC2(C(O)c2c(O)cccc2C3=O)C1O` (stereo not drawn), the T/C (dose: 16.0 mg/kg/injection, schedule: Q07DX002 (ip), vehicle: Klucel (hydroxypropylcellulose) (HPC)) is 86 % of control and 122 % of control.
With `CN=S(=O)(OCCCCCOS(=O)(=NC)c1ccc(C)cc1)c1ccc(C)cc1` (stereo not drawn), the T/C is 66 % of control and 232 % of control under setting [1]; 74 % of control and 102 % of control under setting [2].
With `CCN(CC)CCOC(=O)Cc1cccc2c(=O)cc(-c3ccc(Cl)cc3)oc12`, the T/C reads like this: under setting [10], 45 % of control and 71 % of control; under setting [11], 45 % of control and 92 % of control; under setting [12], 9 % of control and 43 % of control.
`CC(=O)Oc1[nH]c(=O)c2cccc3c2c1CCC3`: the T/C under setting [9] was 70 % of control and 171 % of control.
Regarding `CC(=O)Oc1c[nH]c(=O)[nH]c1=O`, the T/C reads like this: (dose: 25.0 mg/kg/injection, schedule: Q07DX002 (ip), vehicle: distilled water + Tween-80) 49 % of control and 76 % of control; (dose: 200.0 mg/kg/injection, schedule: Q07DX002 (ip), vehicle: distilled water + Tween-80) 73 % of control and 174 % of control.
Take `CSc1ncc2ncn(C3OC(CO)C(O)C3O)c2n1` (stereo not drawn): the T/C is, setting by setting: under setting [14], 15 % of control and 229 % of control; under setting [13], 56 % of control and 170 % of control; under setting [3], 68 % of control and 161 % of control; under setting [4], 38 % of control and 123 % of control.
With `O=C([CH-]C(=O)C(F)(F)F)c1ccccc1.O=C([CH-]C(=O)C(F)(F)F)c1ccccc1.O=C([CH-]C(=O)C(F)(F)F)c1ccccc1.O=C([CH-]C(=O)C(F)(F)F)c1ccccc1.[Eu+3].c1ccncc1`, the T/C under setting [14] is 69 % of control and 102 % of control; the T/C under setting [15] is 75 % of control and 122 % of control.
In the case of `CC(=O)[O][Pb]([O]C(C)=O)([c]1ccccc1)[c]1ccccc1`, the T/C by setting is: under setting [13], 24 % of control and 112 % of control; under setting [3], 44 % of control and 159 % of control; under setting [15], 51 % of control and 168 % of control.
